# Data as given in ChEMBL document CHEMBL1156829.
# The full ranking holds about 5,400 compounds; the median of “IFI” is about 2, and the highest 2% start at about 22. This is one part of the list.
# Test: NOVARTIS: Inhibition Frequency Index (IFI) - the number of HTS assays where a compound showed > 50% inhibition/induction, expressed as a percentage of the number of assays in which the compound was tested.
# Type: functional
row,SMILES,IFI [%]
1,c1ccc(-c2cc(N3CCC4(CC3)OCCO4)nc(-c3ccccn3)n2)nc1,7.69
2,COc1ccc(C(=O)N(C)CCCNc2ccnc3cc(Cl)ccc23)cc1,0.935
3,CCOC(=O)c1cc(-c2ccc(Cl)cc2Cl)[nH]c1N1CCN(c2ccc(OC)cc2)CC1,0.794
4,CC(C)(C)CC(C)(C)Nc1c(-c2ccccc2OC(=O)c2cccc(C(F)(F)F)c2)nc2ccccn12,3.74
5,O=C(COc1ccc(Cl)cc1)NCCCCNc1ccnc2cc(Cl)ccc12,2.97
6,CCc1ccc(NC(=O)c2sc3nc4c(c(-c5ccco5)c3c2N)CCCC4)cc1,1.16
7,CCOC(=O)C1=C(C)NC2=C(C(=O)CC(c3ccc(Cl)cc3)C2)C1c1ccc(F)cc1 (configuration not stated),3.49
8,NC(Cc1ccccc1)C(=O)N1CCC(Nc2nsc3ccccc23)C1 (configuration not stated),10.1
9,Cc1ccc2nc(C)cc(NCCCN(C)C)c2c1,2.33
10,CN(C)c1cc[n+](CC(=O)c2cccs2)cc1,3.23
11,COc1cc(/C=C2\CC/C(=C\c3cc(OC)c(OC)c(OC)c3)C2=O)cc(OC)c1OC,2.7
12,CNc1ccccc1C(=O)N(C)CCc1ccccc1,5.88
13,CC12CCC(C(=O)N(CC(O)Cn3c4ccc(Cl)cc4c4cc(Cl)ccc43)C1=O)C2(C)C (configuration not stated),2.03
14,CCN1CCN(CCN2C(=O)C3C(C(=O)Nc4ccc(C(C)C)cc4)C4C=CC3(O4)C2C(=O)NC2CCCCC2)CC1 (configuration not stated),0
15,COc1cccc(-c2nc(CS(=O)(=O)CC(=O)N3CC(C)CC(C)C3)c(C)o2)c1 (configuration not stated),0
16,Cc1[nH]n(-c2ccccc2)c(=O)c1C(=O)CN(C(=O)c1ccc2c(c1)OCO2)C(C)C,0
17,COc1ccc(/C=C(\NC(=O)c2ccccc2Br)C(=O)N2CC3CC(C2)c2cccc(=O)n2C3)cc1OC (configuration not stated),0
18,CCN(CC)c1ccc(NC(=O)C2Cc3ccccc3CN2S(=O)(=O)c2ccc(F)cc2)cc1 (configuration not stated),0
19,Nc1c(C(=O)Nc2ccc(Br)cc2)sc2nc3c(c(-c4cccs4)c12)CCC3,2.33
20,Cc1cccc(Nc2nc(NCc3ccco3)c3ccccc3n2)c1,9.43
21,CC1N=C(c2ccc(NC(=O)c3ccc(C(=O)Nc4ccc(C5=NC(C)C(C)N5)cc4)cc3)cc2)NC1C (configuration not stated),8.11
22,COc1ccccc1C(=O)N1CCN(Cc2ccc3ccccc3c2)CC1,2.33
23,CCOC(=O)c1c(NC(=O)CSc2nc3c(c(=O)n(C)c(=O)n3C)n2C(C)C)sc2c1CCCC2,1.77
24,C(=NNc1nc2ccccc2[nH]1)c1ccccc1,0
25,N=c1c2c(n(Cc3ccc(Cl)cc3)c3c1CCC3)CCC2,7.14
26,CN1c2ccccc2N(C)C1c1ccc2c(c1)OCO2,0.621
27,Cc1[nH]c(=O)[nH]c(=O)c1S(=O)(=O)Nc1ccc2oc(-c3ccncc3)nc2c1,2.38
